The values that follow come from article PMC4336329 (PLoS ONE, 2015).

The whole screen tested about 310,000 compounds, of which about 14,000 (4.5%) showed an effect of 50% or more. The effect is printed as a negative number. The list shows a part of the results.
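Note: peak tail current of the secondary pulse compared with the same well before compound.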

This experiment deals with human ether-à-go-go-related gene (hERG) potassium channel (human, UniProt Q12809). In words: primary screen, population patch clamp on CHO cells stably expressing hERG.
human ether-à-go-go-related gene (hERG) potassium channel, sequence (Q12809 whole entry, looked up): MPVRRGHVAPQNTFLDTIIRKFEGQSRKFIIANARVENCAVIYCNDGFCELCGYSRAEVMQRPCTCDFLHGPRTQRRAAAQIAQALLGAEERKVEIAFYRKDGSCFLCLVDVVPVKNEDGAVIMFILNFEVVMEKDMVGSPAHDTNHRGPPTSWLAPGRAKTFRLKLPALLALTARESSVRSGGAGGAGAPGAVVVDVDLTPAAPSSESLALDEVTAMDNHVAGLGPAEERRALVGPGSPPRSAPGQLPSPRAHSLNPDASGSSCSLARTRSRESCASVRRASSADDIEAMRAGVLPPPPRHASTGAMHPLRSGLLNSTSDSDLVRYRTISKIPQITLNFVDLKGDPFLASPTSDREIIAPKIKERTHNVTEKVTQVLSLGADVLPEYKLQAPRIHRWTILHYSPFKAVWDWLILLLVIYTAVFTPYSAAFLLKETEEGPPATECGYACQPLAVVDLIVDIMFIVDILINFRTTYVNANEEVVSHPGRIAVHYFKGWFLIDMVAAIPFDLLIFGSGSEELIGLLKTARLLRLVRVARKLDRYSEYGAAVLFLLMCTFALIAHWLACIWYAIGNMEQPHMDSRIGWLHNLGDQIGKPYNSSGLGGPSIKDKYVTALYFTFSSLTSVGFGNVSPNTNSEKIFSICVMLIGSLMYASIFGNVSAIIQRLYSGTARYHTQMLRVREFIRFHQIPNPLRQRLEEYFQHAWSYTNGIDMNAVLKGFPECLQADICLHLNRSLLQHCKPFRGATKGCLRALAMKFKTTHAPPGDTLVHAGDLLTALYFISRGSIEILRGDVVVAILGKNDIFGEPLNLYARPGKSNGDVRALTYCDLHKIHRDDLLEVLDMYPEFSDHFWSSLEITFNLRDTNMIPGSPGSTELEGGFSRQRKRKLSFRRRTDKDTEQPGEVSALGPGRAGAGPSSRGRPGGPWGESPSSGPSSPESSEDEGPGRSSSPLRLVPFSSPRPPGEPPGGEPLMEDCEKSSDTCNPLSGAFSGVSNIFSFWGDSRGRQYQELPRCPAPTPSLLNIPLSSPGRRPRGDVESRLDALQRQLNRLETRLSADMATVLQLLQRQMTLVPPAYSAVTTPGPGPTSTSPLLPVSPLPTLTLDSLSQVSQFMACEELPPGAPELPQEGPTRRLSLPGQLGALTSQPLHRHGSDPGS
In the case of `Nc1cc(=O)[nH]c(SCC(=O)N2CCc3ccccc3C2)n1`, the “hERG current change (%, negative = inhibition) at 10uM” value is listed as 12.3%.
The figure for `O=C(CN1C(=O)NC2(CCOc3ccccc32)C1=O)Nc1ccc(F)c(F)c1F` (stereo not drawn) is -11%.
Under `COc1ccc(OC)c(NC(=O)C2CCN(c3cc(-c4ccccc4)nc4ncnn34)CC2)c1` stands -10.8%; under `Cc1nn2c(N3CCOCC3)cc(C(C)C)nc2c1-c1ccccc1`, 9.66%; under `CCCCNC(=S)N(CCN(C)C)Cc1cc2cc3c(cc2[nH]c1=O)OCCO3`, 7.02%.
Turning to `NNC(=O)CNC(=O)c1cccc(Br)c1`, the “hERG current change (%, negative = inhibition) at 10uM” value is on record as -1.26%.
Under `COc1cc(/C=N/NC(=O)Cc2csc(C)n2)ccc1OCC(C)C` stands -0.122%; under `CCc1nc2ccccc2n1CC(O)COCC1CC=CCC1` (stereo not drawn), -31.9%.
As for `O=C(NCc1cccnc1)/C(=C/c1ccc(-c2cccc(C(F)(F)F)c2)o1)NC(=O)c1ccccc1`, the “hERG current change (%, negative = inhibition) at 10uM” value is -74.1%.
The figure for `O=C(CC(=O)N1CCN(c2ccccn2)CC1)Nc1ccc2nc3n(c(=O)c2c1)CCCCC3` is -17.9%; for `CCCC(=O)CN1C(=O)C2(OCCO2)c2ccccc21` it is 7.06%; for `CCCn1c(=O)c2ccccc2n2c(SCC(=O)NCc3cccs3)nnc12` it is -18.1%.
Take `CCn1c2ccccc2c2nnc(NN)nc21`: the “hERG current change (%, negative = inhibition) at 10uM” value is 10.6%.
Under `COc1ccc(-c2cnc(N)nc2-c2ccc(OC)cc2)cc1` stands 22.4%.
On to `Cc1coc2cc3oc(=O)ccc3cc12`, for which the “hERG current change (%, negative = inhibition) at 10uM” value stood at 9.84%.
The figure for `CN(CC(=O)O)c1ccc(S(=O)(=O)N2CCOCC2)cc1[N+](=O)[O-]` is 12.5%.
Under `COc1cc(OC)cc(-c2nnc(SCc3cccnc3)o2)c1` stands -24.8%.
`Cc1nn(Cc2ccc(Cl)cc2)c(C)c1NC(=O)c1cc(-c2ccc3c(c2)OCO3)on1`: the “hERG current change (%, negative = inhibition) at 10uM” value is -3.11%.
The figure for `CC(=O)OC(C(=O)NC1CCCCC1)c1ccc(Cl)c(Cl)c1` (stereo not drawn) is 30.7%; for `CC1CCN(C(=O)CN2C(=O)NC3(CCCCCC3)C2=O)CC1` it is 9.19%; for `CCC(C)(C)C1CCc2[nH]nc(C(=O)NCc3ccccn3)c2C1` (stereo not drawn) it is 2.6%.
Take `COc1ccc(C(=O)NC2CC2)cc1OC1CCN(Cc2cc(C)cc(C)c2)CC1`: the “hERG current change (%, negative = inhibition) at 10uM” value was -70.2%.
Consider `Cc1cc(C)c(C(=O)CN2C(=O)NC3(CCCCCC3)C2=O)cc1C`, for which the “hERG current change (%, negative = inhibition) at 10uM” value is 16.8%.
For the molecule `C#CCOCCOCCOCCNc1nc(N2CCN(C(=O)CCCCCCCCCCNC(=O)[C@@H](CCSC)n3cc(CCO)nn3)CC2)nc(N2CCN(C(=O)CCCCCCCCCCNC(=O)[C@H](CCCN=C(N)N)n3cc(C[C@@H](C)CC)nn3)CC2)n1`, the “hERG current change (%, negative = inhibition) at 10uM” value is recorded as 16.1%.
